# Assay results reported in the supplement of paper PMC8728848.
# This is one part of the list.
# B1: CC1G-11630 (Coprinopsis cinerea), A8P462 (protein)
# chain: MTTEAKIKLKAVVYWELVFDYDNSSNTGEITQSYTVKISQTSTRSTFASEVSTTTIDTLTKNNQEVDVGASYGAISANVSASWEHSEEVNNMLEKTTQTSTEDTYTVETEETRSYTIGPGGMLSLFQKHFSGPGMHVAFDVFTTDLELAKERTEIDIDVDVEAIRFVREIRVVYTDIMSEAPGDHVREINGKNPDINYGFNGKFVWLVPEQTRKTAQALTNVEFVSQAESDDRYWDLAAGAGGSNRYLIPVYDTNNKDKIYELALWRSDSYITHDKVKAAGWSGTTGDINSGRGGTYLNLVWKTRHAY
# How the values were obtained:
# Assay in all cases: glycan array binding signal (z-score within array); higher = stronger binding
# Details in all cases: glycan notation: IUPAC condensed, linker removed
# [1] = target: GalNAc(a1-3)GalNAc(b1-3)Gal(a1-4)Gal(b1-4)GlcNAc
# Method in brief: (§1)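 Columns mapping to the same glycan were averaged after glycan names were converted to IUPAC-condensed notation. The data come from 3228 arrays in the Consortium for Functional Glycomics database, limited to those with an available protein sequence. Binding is reported as a within-array Z-score averaged across arrays of one protein sequence and across linkers.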
# [2] = target: GalNAc(b1-3)Gal
# Method in brief: as §1
# [3] = target: GalNAc(b1-3)Gal(a1-4)Gal(b1-4)GlcNAc
# Method in brief: as §1
# [4] = target: GalNAc(b1-3)Gal(a1-4)Gal(b1-4)GlcNAc(b1-3)Gal(b1-4)Glc
# Method in brief: as §1
# [5] = target: GalNAc(b1-3)Gal(a1-6)Gal(b1-4)Glc
# Method in brief: as §1
# [6] = target: GalNAc(b1-3)GalNAc
# Method in brief: as §1
# [7] = target: GalNAc(b1-3)GlcNAc
# Method in brief: as §1
# [8] = target: GalNAc(b1-4)Gal(b1-4)Glc
# Method in brief: as §1
# [9] = target: GalNAc(b1-4)GlcNAc
# Method in brief: as §1
# [10] = target: GalNAc(b1-4)GlcNAc(b1-2)Man
# Method in brief: as §1
# [11] = target: GalNAc(b1-4)GlcNAc(b1-2)Man(a1-3)[GalNAc(b1-4)GlcNAc(b1-2)Man(a1-6)]Man(b1-4)GlcNAc(b1-4)GlcNAc
# Method in brief: as §1
# [12] = target: GalNAc(b1-4)GlcNAc(b1-3)GalNAc(b1-4)GlcNAc
# Method in brief: as §1
# [13] = target: GalNAc(b1-4)GlcNAc6S
# Method in brief: as §1
# [14] = target: GalNAc(b1-6)GalNAc
# Method in brief: as §1
# [15] = target: GalNAc3S(b1-4)GlcNAc
# Method in brief: as §1
# [16] = target: GalNAc3S(b1-4)GlcNAc3S
# Method in brief: as §1
# [17] = target: GalNAc3S(b1-4)[Fuc(a1-3)]GlcNAc
# Method in brief: as §1
# [18] = target: GalNAc4S6S(b1-4)GlcNAc
# Method in brief: as §1
# [19] = target: GalNAc6S(b1-4)GlcNAc
# Method in brief: as §1
# [20] = target: Glc(a1-4)Glc
# Method in brief: as §1
# [21] = target: Glc(a1-4)Glc(a1-4)Glc(a1-4)Glc
# Method in brief: as §1
# [22] = target: Glc(a1-6)Glc(a1-6)Glc
# Method in brief: as §1
# [23] = target: Glc(a1-6)Glc(a1-6)Glc(a1-6)Glc
# Method in brief: as §1
# [24] = target: Glc(b1-4)Glc
# Method in brief: as §1
# [25] = target: Glc(b1-6)Glc
# Method in brief: as §1
# [26] = target: GlcA(b1-3)Gal
# Method in brief: as §1
# [27] = target: GlcA(b1-3)GlcNAc
# Method in brief: as §1
# [28] = target: GlcA(b1-6)Gal
# Method in brief: as §1
# [29] = target: GlcA3S(b1-3)Gal(b1-4)GlcNAc(b1-2)Man
# Method in brief: as §1
# [30] = target: GlcA3S(b1-3)Gal(b1-4)GlcNAc(b1-3)Gal(b1-4)Glc
# Method in brief: as §1
# [31] = target: GlcNAc(a1-3)Gal(b1-4)GlcNAc
# Method in brief: as §1
# [32] = target: GlcNAc(a1-4)Gal(b1-3)GlcNAc
# Method in brief: as §1
# [33] = target: GlcNAc(a1-4)Gal(b1-4)GalNAc
# Method in brief: as §1
# [34] = target: GlcNAc(a1-4)Gal(b1-4)GlcNAc
# Method in brief: as §1
# [35] = target: GlcNAc(a1-4)Gal(b1-4)GlcNAc(b1-3)Gal(b1-4)Glc
# Method in brief: as §1
# [36] = target: GlcNAc(a1-4)Gal(b1-4)GlcNAc(b1-3)Gal(b1-4)GlcNAc
# Method in brief: as §1
# [37] = target: GlcNAc(a1-4)Gal(b1-4)GlcNAc(b1-3)Gal(b1-4)GlcNAc(b1-3)Gal(b1-4)GlcNAc
# Method in brief: as §1
# [38] = target: GlcNAc(a1-4)Gal(b1-4)GlcNAc(b1-3)Gal(b1-4)[Fuc(a1-3)]GlcNAc(b1-3)Gal(b1-4)[Fuc(a1-3)]GlcNAc
# Method in brief: as §1
binder,measurement,setting,value
B1,glycan array binding signal (z-score),[1],-0.849
same,glycan array binding signal (z-score),[2],-0.06
same,glycan array binding signal (z-score),[3],0.165
same,glycan array binding signal (z-score),[4],-0.129
same,glycan array binding signal (z-score),[5],-0.617
same,glycan array binding signal (z-score),[6],-0.822
same,glycan array binding signal (z-score),[7],-0.463
same,glycan array binding signal (z-score),[8],1.99
same,glycan array binding signal (z-score),[9],-0.011
same,glycan array binding signal (z-score),[10],-0.148
same,glycan array binding signal (z-score),[11],-0.267
same,glycan array binding signal (z-score),[12],-0.1
same,glycan array binding signal (z-score),[13],-0.254
same,glycan array binding signal (z-score),[14],-0.821
same,glycan array binding signal (z-score),[15],-0.609
same,glycan array binding signal (z-score),[16],0.1
same,glycan array binding signal (z-score),[17],0.036
same,glycan array binding signal (z-score),[18],0.25
same,glycan array binding signal (z-score),[19],-0.343
same,glycan array binding signal (z-score),[20],-0.07
same,glycan array binding signal (z-score),[21],0.19
same,glycan array binding signal (z-score),[22],-0.093
same,glycan array binding signal (z-score),[23],0.977
same,glycan array binding signal (z-score),[24],0.323
same,glycan array binding signal (z-score),[25],0.483
same,glycan array binding signal (z-score),[26],-0.032
same,glycan array binding signal (z-score),[27],-0.286
same,glycan array binding signal (z-score),[28],0.625
same,glycan array binding signal (z-score),[29],-0.172
same,glycan array binding signal (z-score),[30],0.565
same,glycan array binding signal (z-score),[31],-0.375
same,glycan array binding signal (z-score),[32],-0.499
same,glycan array binding signal (z-score),[33],-0.038
same,glycan array binding signal (z-score),[34],-0.761
same,glycan array binding signal (z-score),[35],-0.932
same,glycan array binding signal (z-score),[36],-0.307
same,glycan array binding signal (z-score),[37],-0.571
same,glycan array binding signal (z-score),[38],0.104
